The chains are these.
T1: UNK ZnF1-3 (human, UniProt Q9C0B0 31-174)
T1 sequence: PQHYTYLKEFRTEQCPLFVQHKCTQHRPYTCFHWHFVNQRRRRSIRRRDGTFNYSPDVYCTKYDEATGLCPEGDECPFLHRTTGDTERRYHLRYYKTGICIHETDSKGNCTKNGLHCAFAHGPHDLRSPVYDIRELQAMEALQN

B1: 83845325_83845445_827_3pUTR_ENSG00000230989_ENST00000433866|human|control|control (ssRNA)
RNA: GGGAGUUCUACAGUCCGACGAUCACUCUAAAGUCUACAAACAUCUUACUUCACCAAGACUAACUAUAAUUGAAGGGUUUACUAUUUGUUUAAUAAAAAAUCACACAUCAACUUUUAUCCAAACAGCAACUACUACAAAAGGAACAACAGAGGAUUGAGCAUCA
B2: chr9:95013113:95013114:-_ENSG00000196305_ENST00000443024|hu_hu|hu_hu_hu_mus_False|58_98 (ssRNA)
RNA: GGGAGUUCUACAGUCCGACGAUCCUCAGUCAGAAAGGGUGUGUAGGGGGCCAUCAGUCUGCACAGAGAAAGCAGGACACUAAACAAUGUCUCCAGAGCCAUGACACAGUCUUCCACCCCACUCUCACCCUUUAACCUCCUCCUCAACAGAGGAUUGAGCAUCA
B3: chr1:155751701:155751702:+_ENSMUSG00000026473_ENSMUST00000086199|mus_mus|motif|central (ssRNA)
RNA: GGGAGUUCUACAGUCCGACGAUCAAACAUGGCAACAGGAUGGAGGUACAUGUCGCUGUUGGAGCCUUCAGACUGAAAGGUACGGGAGCCAUCAAAGUUCCACUCAGGUAACUCUUCCACACACUUGGGCUCACAGUCCAGGGUCAACAGAGGAUUGAGCAUCA
B4: chr4:103533647:103533648:+_ENSG00000109320_ENST00000505458|hu_hu|FALSE|FALSE (ssRNA)
RNA: GGGAGUUCUACAGUCCGACGAUCCCCCAGACCUAAUUUCUGCGCCAGAGUAGCCCAGUUUUUGUCUGGAUCAGGAAUUUCUAGUAACUUAUACAGCUGCAGCUUCACAUCUUCAGCCAGCUGUUUCAUGUCUCCUUGUGCUAGCAACAGAGGAUUGAGCAUCA
B5: 72664031_72664151_698_5pUTR_ENSMUSG00000022883_ENSMUST00000023600|mouse|control|control (ssRNA)
RNA: GGGAGUUCUACAGUCCGACGAUCUCUGAAGAGGCUCAACCACUUCCAAGGCUCAUCCAAGGCGAACAACAAAGAGCCUAAACCGAGGAGCAGUUGUGCGGUUUCCUGCCUCCACAGUCCUGCUGAGCCUCCCGGCGUGCGCCUCAACAGAGGAUUGAGCAUCA
B6: chr11:77336104:77336105:-_ENSG00000074201_ENST00000525064|hu_mus|hu_hu_hu_mus_False|28_48 (ssRNA)
RNA: GGGAGUUCUACAGUCCGACGAUCCUCACACAUUGCUGUGAACAUCGCCUCCAAUGCUGACUUAUCACUGGGCACAAAUCGAAAUUCAGUAAUAGGUUCAACAUCAUCAUCACUGUCCUCAUCUUCAUCAGAGAGAGGUUCUUUCAACAGAGGAUUGAGCAUCA
B7: chr1:220276048:220276049:+_ENSG00000067704_ENST00000302637|hu_hu|hu_hu_hu_mus_True|18_68 (ssRNA)
RNA: GGGAGUUCUACAGUCCGACGAUCGCAAAUUGCCUGGUUGGCGGGAAUUGUCCAAGGCUGGGUGGUCCAGACCAAAACGCUAACAGGGGAUGAGGCAUCUGUAAGAGACUCCAACUUUGGAGAAGGCCUCAGGAGGGGGAAUCUCAACAGAGGAUUGAGCAUCA
B8: chr7:135612270:135612271:-_ENSG00000105887_ENST00000393085|hu_mus|hu_hu_hu_mus_False|58_88 (ssRNA)
RNA: GGGAGUUCUACAGUCCGACGAUCGUUUUUUUCUGAGAUGUUAAAUAUUCAGUGGAGGGAAAACAAAACUUAACCUUUCGCUAAUGCGUGUUGUACCAAAAGCAGACAUUUUAGCUUCAUUUAUUCAAAAAUAUUAACAUUAAGCAACAGAGGAUUGAGCAUCA
B9: 90250392_90250512_7279_3pUTR_ENSMUSG00000012422_ENSMUST00000161568|mouse|control|control (ssRNA)
RNA: GGGAGUUCUACAGUCCGACGAUCGUUUUCUAUUUUUCUAUUACCUCAAUUUUUAAGGUAUCUUUUGGCUAUAUCAUUUCUUUGGUUACAAUCUUUAUCUGCAGGAGGUCUUAGCCUAUCCAUUAAAUUCUUCGACUAGACUUCCAACAGAGGAUUGAGCAUCA
B10: chr8:35894604:35894605:-_ENSMUSG00000031529_ENSMUST00000033929|mus_mus|FALSE|FALSE (ssRNA)
RNA: GGGAGUUCUACAGUCCGACGAUCUGUCACUCUAGCAAUGCUUUAUAAAAGACAGCUUAUUUCUUGGCUGUUGGGAUUUAGAGAAUAUUGAUUUUUUGUUGGAAGCAAUCCACUGUACUCCAGUUGCAGGUUUGAAUCACUCUGCAACAGAGGAUUGAGCAUCA
B11: chr5:138994509:138994510:+_ENSG00000131508_ENST00000398734|hu_hu|FALSE|FALSE (ssRNA)
RNA: GGGAGUUCUACAGUCCGACGAUCGAUGGACAAGAGUACUUUUGAAAUAGUUAGUGCUGGAGACCACUGUGAUCGUAGAAUAUCAAGACAAAUGCUGCCAUUACUGUUAAUAUUUGGAUGAUAAAUUCUUGUUGUAAAUGCAACCAACAGAGGAUUGAGCAUCA
B12: chr11:109522620:109522621:+_ENSMUSG00000020612_ENSMUST00000049527|mus_hu|FALSE|FALSE (ssRNA)
RNA: GGGAGUUCUACAGUCCGACGAUCAUCCCCUUCAUCACCUUGCUGAAUCACAGUCUCUCCUGCGAUAAAGGAGACCGAAAACAUGGCAUCAAAAAUAUCACUUCUCUCAUUAUCAUCAAGAUGUGAAAACAGCACAUUCUUUUCCAACAGAGGAUUGAGCAUCA
B13: chr9:110467127:110467128:+_ENSMUSG00000044791_ENSMUST00000153838|mus_mus|FALSE|FALSE (ssRNA)
RNA: GGGAGUUCUACAGUCCGACGAUCUUCUUUGCCAUAUCUUUGGAACUGGUAGUCAAAAGUUAAUUCUGAGCCUGAAGGAACUAGUUUGGUGGUAAAAAAUCCAACCCUCAGCUGUCCAUUCACAGUCCAUUUCUGGGUUUCACACAACAGAGGAUUGAGCAUCA
B14: chr1:39494564:39494565:+_ENSG00000168653_ENST00000372967|hu_hu|hu_hu_hu_mus_True|8_38 (ssRNA)
RNA: GGGAGUUCUACAGUCCGACGAUCAUGCAUUCGCCUCAUCGUUUUGUACCGAAGCAAGCACUCUUCGAAGUCAUCGAACUCUAUCUUGCACUCCUUUUCUGCCCGAGUCCCACCGAUCCCGUGUGCACAUUCUAUCCACUCUUUCAACAGAGGAUUGAGCAUCA

This is one part of the list.

The target in the assay is T1, UNK ZnF1-3. Briefly: nsRBNS (natural sequence RNA bind-n-seq); RBNS binding buffer (assumed for nsRBNS): 25 mM Tris pH 7.5, 150 mM KCl, 3 mM MgCl2, 0.01% Triton X-100, 500 ug/ml BSA, 20 U/ml SUPERase-In, 4 C; UNK is unkempt and MSI1 is Musashi-1; names of the RNAs are library labels; protein concentration not given here; high values mean tight binding.
Consider B1, for which the binding signal was determined as 0.878 enrichment R.
B2 showed a binding signal of 1.2 enrichment R.
The figure for B3 is 1.28 enrichment R.
In turn, B4 yielded a binding signal of 0.569 enrichment R.
The figure for B5 is 0.739 enrichment R; for B6 it is 0.92 enrichment R.
Molecule B7 came in with a binding signal of 2.2 enrichment R.
The figure for B8 is 2.04 enrichment R; for B9 it is 0.54 enrichment R; for B10 it is 0.83 enrichment R.
Next, B11: 0.946 enrichment R; B12: 0.666 enrichment R; B13: 0.918 enrichment R.
The figure for B14 is 0.607 enrichment R.
